In a compilation of properties of binary mixtures (doi:10.1021/acs.jced.3c00374):
Some of these densities may be calculated back from excess volumes.

Experiment: xn = mol fraction of the nth substance listed
Details: 100 kPa

OCCNCCO + CCCC[n+]1ccn(C)c1.N#C[S-]
mass density (288.15 K, x2 = 0): 1099.7 kg/m3
mass density (308.15 K, x2 = 0): 1086.8 kg/m3
mass density (318.15 K, x2 = 0): 1080.3 kg/m3

CCCC[n+]1ccn(C)c1.N#C[S-] + OCCNCCO
mass density (288.15 K, x1 = 0.1008): 1097.2 kg/m3
mass density (288.15 K, x1 = 0.2993): 1092.3 kg/m3
mass density (288.15 K, x1 = 0.4027): 1089.8 kg/m3
mass density (288.15 K, x1 = 0.5131): 1087 kg/m3
mass density (288.15 K, x1 = 0.7102): 1082.2 kg/m3
mass density (288.15 K, x1 = 0.8009): 1079.9 kg/m3
mass density (288.15 K, x1 = 0.9102): 1077.2 kg/m3
mass density (288.15 K, x1 = 1): 1075 kg/m3
mass density (298.15 K, x1 = 0.1008): 1090.9 kg/m3
mass density (298.15 K, x1 = 0.2103): 1088.3 kg/m3
mass density (298.15 K, x1 = 0.4027): 1083.9 kg/m3
mass density (298.15 K, x1 = 0.5131): 1081.3 kg/m3
mass density (298.15 K, x1 = 0.6087): 1079.1 kg/m3
mass density (298.15 K, x1 = 0.9102): 1072.1 kg/m3
mass density (298.15 K, x1 = 1): 1070 kg/m3
mass density (308.15 K, x1 = 0.1008): 1084.5 kg/m3
mass density (308.15 K, x1 = 0.2103): 1082.1 kg/m3
mass density (308.15 K, x1 = 0.4027): 1077.8 kg/m3
mass density (308.15 K, x1 = 0.5131): 1075.3 kg/m3
mass density (308.15 K, x1 = 0.7102): 1070.9 kg/m3
mass density (308.15 K, x1 = 0.9102): 1066.5 kg/m3
mass density (308.15 K, x1 = 1): 1064.5 kg/m3
mass density (318.15 K, x1 = 0.1008): 1078.2 kg/m3
mass density (318.15 K, x1 = 0.2103): 1075.9 kg/m3
mass density (318.15 K, x1 = 0.2993): 1074 kg/m3
mass density (318.15 K, x1 = 0.4027): 1071.9 kg/m3
mass density (318.15 K, x1 = 0.5131): 1069.6 kg/m3
mass density (318.15 K, x1 = 0.6087): 1067.6 kg/m3
mass density (318.15 K, x1 = 0.7102): 1065.4 kg/m3
mass density (318.15 K, x1 = 0.8009): 1063.5 kg/m3
